# Data reported in patent US20260102505A1, “ANTI-CD45-IGN ANTIBODY DRUG CONJUGATES AND USES THEREOF” (Vor Biopharma Inc., priority 2022, published 2026).
# B1: anti-CD45-ADC: anti-CD45 Ab5 conjugated to DGN-549 via cysteines at amino acid 265 in the Fc region, protease-cleavable linker (conjugate)
# heavy: EVQLVESGGGLVQPGGSLRLSCAASGFTFEAYSMNWVRQAPGKGLEWVSYISLSGATIHYADSVKGRFTISRDNAKNSLYLQMNSLRAEDTAVYYCARGGQYYYTSSDYGEVAFDIWGQGTMVTVSSASTKGPSVFPLAPSSKSTSGGTAALGCLVKDYFPEPVTVSWNSGALTSGVHTFPAVLQSSGLYSLSSVVTVPSSSLGTQTYICNVNHKPSNTKVDKKV[not shown - human IgG1 Fc with L234A L235A D265C H435A (EU numbers)]
# light: DIVMTQSPLSLPVTPGEPASISCRSSQSLVSSGYNYLDWYLQKPGQSPQLLIYFGSSRASGVPDRFSGSGSGTDFTLKISRVEAEDVGVYYCMQRRRTPWSFGGGTKVEIKRTVAAPSVFIFPPSDEQLKSGTASVVCLLNNFYPREAKVQWKVDNALQSGNSQESVTEQDSKDSTYSLSSTLTLSKADYEKHKVYACEVTHQGLSSPVTKSFNRGEC
# Key:
# [1] = test system: human HSCs and immune cells; assay: HSC and immune cell depletion in humanized mice; assay type: in vivo, humanized NSG mice; conditions: single dose 1 mg/kg
# Method: Humanized mice were treated with a single dose of an anti-CD45-ADC at a dose of 1 mg/kg. Peripheral blood samples were assessed at days 7 and 14 post-treatment and bone marrow was assessed at day 14 post-treatment (FIG. 3A).
# The anti-malignancy activity was assessed in a patient-derived xenograft (PDX) model of relapsed/refractory acute myeloid leukemia (AML).
# HSCs and immune function = assay: Minimum efficacious dose for HSC + immune cell depletion in NHP; assay type: in vivo
molecule,measurement,setting,value
B1,depletion of human HSCs and immune cells in bone marrow and peripheral blood,[1]; n=5/group,> 95%
same,depletion of immune cell types in bone marrow,[1]; bone marrow day 14,> 95%
same,depletion of human HSCs and peripheral cells,"[1]; peripheral blood days 7 and 14, bone marrow day 14",> 95%
same,AUC,HSCs and immune function; 0.15 mg/kg,920 ng·h/mL
same,HSC depletion,HSCs and immune function; 0.15 mg/kg,99%
same,reduction in functional T-cells (inability to divide ex vivo),HSCs and immune function; 0.15 mg/kg,97%
same,minimum efficacious dose (MED),HSCs and immune function; dose giving >95% depletion of HSCs and immune function,0.15 mg/kg
